# According to paper PMC4336329 (PLoS ONE, 2015):
# The campaign covered roughly 310,000 compounds. About 2,200 (0.71%) showed an effect of 50% or more. The effect is printed as a negative number. This is one part of the list.
# Target: human ether-à-go-go-related gene (hERG) potassium channel (human, UniProt Q12809)
# Test: primary screen, population patch clamp on CHO cells stably expressing hERG
# Chain of human ether-à-go-go-related gene (hERG) potassium channel (Q12809 whole entry, looked up): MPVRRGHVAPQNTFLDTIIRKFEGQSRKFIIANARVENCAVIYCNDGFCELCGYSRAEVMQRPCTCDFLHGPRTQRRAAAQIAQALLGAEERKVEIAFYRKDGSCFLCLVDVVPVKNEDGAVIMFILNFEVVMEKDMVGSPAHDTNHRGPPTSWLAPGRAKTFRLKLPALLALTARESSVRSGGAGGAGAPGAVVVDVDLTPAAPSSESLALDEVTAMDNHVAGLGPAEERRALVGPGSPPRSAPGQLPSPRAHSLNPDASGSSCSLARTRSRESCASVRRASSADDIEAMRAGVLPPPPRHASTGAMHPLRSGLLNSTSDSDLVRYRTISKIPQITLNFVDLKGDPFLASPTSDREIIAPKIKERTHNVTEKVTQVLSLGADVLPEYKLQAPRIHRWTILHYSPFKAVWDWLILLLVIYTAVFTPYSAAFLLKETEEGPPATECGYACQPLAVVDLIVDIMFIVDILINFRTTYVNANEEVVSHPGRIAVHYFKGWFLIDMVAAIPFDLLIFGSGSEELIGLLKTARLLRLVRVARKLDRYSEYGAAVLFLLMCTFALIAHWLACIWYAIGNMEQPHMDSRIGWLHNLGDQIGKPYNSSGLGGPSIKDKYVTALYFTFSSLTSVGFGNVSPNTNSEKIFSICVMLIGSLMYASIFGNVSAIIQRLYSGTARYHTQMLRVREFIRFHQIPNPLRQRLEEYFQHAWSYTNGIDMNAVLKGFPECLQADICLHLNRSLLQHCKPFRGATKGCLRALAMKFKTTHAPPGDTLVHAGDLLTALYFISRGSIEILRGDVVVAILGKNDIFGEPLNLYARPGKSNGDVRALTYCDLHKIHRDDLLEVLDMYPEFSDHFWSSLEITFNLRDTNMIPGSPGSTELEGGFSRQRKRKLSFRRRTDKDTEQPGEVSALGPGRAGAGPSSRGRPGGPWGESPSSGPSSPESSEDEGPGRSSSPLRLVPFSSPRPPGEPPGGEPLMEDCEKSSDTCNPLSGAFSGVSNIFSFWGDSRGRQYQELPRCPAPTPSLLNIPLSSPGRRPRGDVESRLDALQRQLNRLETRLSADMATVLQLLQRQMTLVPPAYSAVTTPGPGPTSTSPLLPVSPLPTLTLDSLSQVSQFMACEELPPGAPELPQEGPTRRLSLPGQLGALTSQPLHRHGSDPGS
row,Compound,"hERG current change (%, negative = inhibition) at 1uM [%]"
1,Cn1c(CC2Sc3ccccc3NC2=O)nnc1SCC(=O)c1ccc(Cl)cc1 (stereo not shown),8.3
2,Cc1cc(NC(=O)c2oc3ccccc3c2C)ccc1-n1cnnn1,8.11
3,COc1ccc(CC(=O)n2[nH]c(=O)c3ccccc3c2=O)cc1OC,12.3
4,CN(c1ccccc1)S(=O)(=O)c1ccc(C(=O)Nc2nnc(C3=COCCO3)o2)cc1,-3.78
5,O=C(N/N=C/c1c(O)n(Cc2ccc(F)cc2)c(=O)[nH]c1=O)c1ccccc1O,12.2
6,O=C1CCC(=O)N1c1ccc(NCCc2cccc(F)c2)c([N+](=O)[O-])c1,8.55
7,O=c1[nH]c(S)c(/C=C2\C=Nc3ccccc32)s1,16.9
8,CCOC(=O)N1CCN(S(=O)(=O)c2ccc(C(=O)Nc3nc4ccc(F)cc4s3)cc2)CC1,-3.52
9,COC(=O)N/N=C\c1cc(Br)ccc1OCc1ccccc1,14.8
10,COc1ccc(-c2ccc(NS(=O)(=O)c3cc([N+](=O)[O-])ccc3C)cc2)nn1,12.7
11,Cc1cc(=O)n2[nH]c(C)cc2n1,16.6
12,CN1CCN(c2nc3c(c(=O)[nH]c(=O)n3C)n2CC(N)=O)CC1,16.5
13,Cc1ccc(-c2cc(C(=O)N3CCN(C(=O)c4ccco4)CC3)no2)cc1,-4.32
14,Cn1c(=O)c2[nH]c(N/N=C(/C#N)C(N)=O)nc2n(C)c1=O,7.16
15,CCOC(=O)C1CCN(C(=O)C(C)Oc2ccc(C(=O)c3ccccc3)cc2)CC1 (stereo not shown),0.352
16,O=C(NO)c1cc(OCC(F)(F)F)ccc1OCC(F)(F)F,-9.5
17,O=C(CC1SC(=O)N(c2ccccc2)C1=O)Nc1cccc2ccccc12 (stereo not shown),15.6
18,CCc1cccc(NS(=O)(=O)c2c(C)nc3sc(CC)nn3c2=O)c1,0.621
19,C=CCNC(=O)c1onc(CSc2cc(C)ccc2C)c1C(=O)O,4.72
20,O=C(NCCNc1ccc([N+](=O)[O-])cc1)c1ccc(Cl)cc1,-9.29
21,Cc1c(C)n(C)c2ccc(C(=O)NCCCN3CCN(C)CC3)cc12,17.3
22,Clc1cccc(/C=N/Nc2nnc(Cl)c3ccccc23)c1,5.24
23,CCOC(=O)C1(c2ccccc2)CCN(CC(=O)Nc2ccc(C)cc2)CC1,12.1

row,Compound,"hERG current change (%, negative = inhibition) at 1uM [%]"
1,O=C(O)C[C@H]1c2cc(C(F)(F)F)ccc2S(=O)(=O)N1Cc1ccccc1,13.1
2,COc1cc(CN2CCC(C(=O)N3CCN(c4ccccc4F)CC3)CC2)ccc1O.O=C(O)C(=O)O,-2.09
3,COc1ccc(/C=C/C(=O)O)cc1S(=O)(=O)NC1CCS(=O)(=O)C1 (stereo not shown),7.36
4,O=C(Nc1cccc(-n2cnnn2)c1)c1ccc(C(F)(F)F)cc1,1.36
5,CC(C)Oc1ccc(C(=O)NC2=NCCS2)cc1,10.6
6,Cc1ccc(CN2CCNC(=O)C2CC(=O)N(C)Cc2cnccn2)cc1 (stereo not shown),8.07
7,CCC(CC)C(=O)OCC(=O)NC12CC3CC(CC(C3)C1)C2,2.99
8,CS(=O)(=O)N(CC(=O)NCCSCc1ccccc1Cl)c1ccc(F)cc1,0.996
9,CNc1c([N+](=O)[O-])cnn1-c1ccccn1,2.65
10,O=C(NC1CCN(Cc2ccccc2)CC1)c1cccc(S(=O)(=O)Nc2ccc(F)cc2)c1,-6.23
11,Cl.O=C(CCN1CCCCCC1)Nc1cccc(F)c1,-4.99
12,Cc1ccc2c(c1)C1(OCCCO1)C(=O)N2CC(=O)NN,11.6
13,COc1ccc(C(CNC(=O)c2ccc(S(=O)(=O)N(C)C)cc2)N(C)C)cc1 (stereo not shown),20.2
14,Cc1ccc(NC(=O)CC2(CC(=O)O)CCCC2)c(C)c1,14.1
15,Cl.Clc1cccc(Cl)c1NC1=NCCN1,10.6
16,COc1cc(C)c(N(C(C)=O)c2ccccc2)c(C)c1,5.85
17,CCCN1C(=O)c2ccc(C(=O)Nc3ccc4c(c3)OCO4)cc2C1=O,6.9
18,CCNC(=S)N(CCc1c(C)[nH]c2ccccc12)Cc1cccnc1,0.0608
19,CCCc1nc2c(sc3nc4c(cc32)COC(C)(C)C4)c(=O)n1CCN(C)C,4.67
20,COc1ccc(-n2c(N)c(C(=O)NCC3CCCO3)c3nc4ccccc4nc32)c(OC)c1 (stereo not shown),14.1
21,CC(C)(C)n1[nH]c2c3c(ccc2c1=O)C(=O)c1ccccc1C3=O,11.3
22,CC1=NCC(C)c2c1[nH]c1ccccc21 (stereo not shown),3.58
23,Cc1cccc(C)c1N1C(=O)CC(N(O)c2ccccc2)C1=O (stereo not shown),20.5

row,Compound,"hERG current change (%, negative = inhibition) at 1uM [%]"
1,COc1ccc(C)cc1NC(=O)C1CCCN(S(=O)(=O)c2cccc3cccnc23)C1 (stereo not shown),7.19
2,Cn1c(CNC(=O)c2ccco2)nnc1SCC(=O)N1c2ccccc2Sc2ccccc21,6.73
3,Cc1ccc(NC(=O)c2ccc3[nH]c(=O)c(=O)[nH]c3c2)nc1,-5.13
4,O=C(Nc1ccnn1C1CCN(C(=O)c2ccc(Cl)c(F)c2)CC1)C1CCOC1 (stereo not shown),9.51
5,CC1=NN(c2cccc(C(=O)O)c2)C(=O)/C1=C\C=C\c1ccco1,5.51
6,Cn1cnnc1SCC(=O)Nc1ccccc1F,92.3
7,Br.N=C(N)SCc1ccc(Cl)cc1Cl,-9.46
8,COc1ccc(NC(=O)c2c(NC(=O)CNCC(C)C)sc3c2CCC3)c(OC)c1,15.5
9,O=C(c1ccco1)N1CCN(S(=O)(=O)c2ccc(Cl)cc2)CC1,12
10,CC(C)(C)c1ccc(SCCc2cccnc2)cc1,10.6
11,COC(=O)CNC(=O)CNC(=O)Nc1ccccc1Cl,10.6
12,COCCNC(=O)c1ccc(S(=O)(=O)N2CCCc3ccccc32)cc1,13.9
13,OCc1c(Cl)nc2ccccn12,5.47
14,O=C1N/C(=N/N=C/c2ccc(O)cc2)SC1Cc1ccccc1 (stereo not shown),-0.776
15,Cc1ccc(NC(=S)NN2CCN(C)CC2)c(C)c1,15.4
16,CCOC(=O)C(C)Sc1nc2c(cnn2-c2ccc(F)cc2)c(=O)[nH]1 (stereo not shown),12.9
17,COCCN1CCN(C(=O)c2cc(COc3ccc(F)cc3Cl)on2)CC1,7.83
18,CCOC(=O)c1sc(=S)n(C)c1NC(=O)c1ccc(C(C)(C)C)cc1,9.13
19,COc1ccc([N+](=O)[O-])cc1/C=N/NC(=O)CNC(=O)c1cccc(F)c1,1.34
20,CCN1CCCc2cc(CN(CCN3CCOCC3)C(=S)Nc3ccc(C)cc3)ccc21,5.31
21,O=C(COc1ccc(-n2cnnn2)cc1)NC1CCCCC1,-6.68
22,COc1ccc(CN(CC2CCC(C(=O)O)CC2)C(=S)Nc2ccccc2C)cc1 (stereo not shown),-1.85
23,O=C(O)C(=O)O.O=[N+]([O-])c1ccc(S(=O)(=O)N2CCN(Cc3ccco3)CC2)cc1,18.9

row,Compound,"hERG current change (%, negative = inhibition) at 1uM [%]"
1,CC(=O)c1ccc(-c2ccccc2)cc1,13.4
2,Cc1ccc(-n2c(=O)c3sccc3n(Cc3cc(=O)n4cc(Cl)ccc4n3)c2=O)cc1F,-7.4
3,Cc1nnc(SCCC(=O)Nc2nc(-c3ccccc3)ns2)s1,0.311
4,CC(C)(C)c1cc(OC(=O)C2CCCC2)ccc1O,16
5,O=C(CN1N=C(C(F)(F)F)CC1(O)c1ccc([N+](=O)[O-])cc1)c1ccccc1 (stereo not shown),7.15
6,CCCc1cc(=O)[nH]c(SCc2ccc(C#N)cc2)n1,7.8
7,COc1ccc(-n2c(NN)nc3sc4c(c3c2=O)CCCC4)cc1,-9.75
8,Cc1ccc(NC(=O)C(=O)NN)cc1,11.5
9,C=CCn1c(SCn2nnc3ccccc3c2=O)nnc1C1CCCCC1,6.45
10,CC(C)OC(=O)CCC1(C(=O)O)CCC(=O)NC1 (stereo not shown),11.5
11,Cc1c(Br)cc(C(=O)N2CCN(CCO)CC2)c(C)c1C,16.8
12,O=C(CSc1n[nH]c(=O)n1C1CC1)c1ccc2c(c1)OCCO2,11.3
13,O=C(Cn1cnc2c(nnn2-c2cccc(Cl)c2)c1=O)N1CCCC1,3.72
14,O=C(CNc1ccccc1-c1ccccc1)NCc1ccccc1,-1.05
15,CSc1ccccc1NC(=O)COc1ccc(Cl)cc1,3.28
16,Cc1ccc(NC(=S)NC(NC(=O)c2ccccc2)C(Cl)(Cl)Cl)c(C)c1 (stereo not shown),5.37
17,COc1ccc(CC(=O)OC2CCCN(C)C2)cc1.Cl (stereo not shown),7.36
18,CCCCn1c(N)c(N(CC(C)C)C(=O)c2c(CC)noc2C)c(=O)[nH]c1=O,5.66
19,COc1ccccc1C(=O)COC(=O)c1ccc(N(C)C)cc1,20.6
20,COCCN(C(=O)COC(=O)Cc1cccc(OC)c1)c1c(N)n(CC(C)C)c(=O)[nH]c1=O,5.44
21,CCCCCC(=O)N1CC2(C)CN(C(=O)CCCCC)CC(C)(C1)C2=O,-5.99
22,CC(C)(C)C(=O)NC(=S)Nc1cc(C(=O)O)ccc1Cl,4.69
